# The supplement of paper PMC4466236
# In all, about 33,000 sequences were measured (“E-score (dimensionless, -0.5 to 0.5)”: median about -0.058, highest 2% from about 0.35 on). The list shows a part of the results.
# Test system: MvaT
# Assay: PBM 8-mer E-score (mean of HK and ME arrays) (E-score (dimensionless, -0.5 to 0.5)); higher = stronger relative binding preference; most listed sequences are background and not binding sites
# Summary of the method: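 Reported values are rank-based E-scores, taken as the mean of two universal arrays and parsed with a custom script. Each 8-mer score falls between -0.5 and 0.5. The arrays, ME and HK, were double-stranded 60-mers with a constant 25-mer primer region and a variable 35-mer region covering all 8-mers. They were probed, by an earlier protocol, with full-length P. aeruginosa MvaT carrying an N-terminal glutathione S-transferase fusion.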
row,Sequence,PBM 8-mer E-score
1,TAGATACA,0.215
2,AAGGCGTC,-0.217
3,ACGAAATA,0.228
4,GCCGTACC,-0.332
5,CAGGCCGG,-0.188
6,GTAGCTTA,0.0787
7,CATCCTCC,-0.269
8,AGAACTTG,0.214
9,AATGGCTG,-0.126
10,CGCGGCCA,-0.223
11,CCGCATTC,-0.0277
12,ACCACTCA,0.157
13,CCTCGCCC,-0.18
14,CAACCCTA,0.00225
15,ATAGTCGC,0.0285
16,CGTGGCTC,-0.246
17,ATGTGAGA,0.0227
18,ATTACTCG,0.169
19,ATACTGTG,0.129
20,ATCATTAC,0.235
21,CTTCTATC,-0.0521
22,CCGGCCTA,-0.174
23,AAGCCAGC,-0.0789
24,CAGCACAA,-0.0547
25,GTTGATTA,0.197
26,CTAATCAG,-0.0597

row,Sequence,PBM 8-mer E-score
1,ACGGGGCT,-0.101
2,GAGGTAAC,-0.101
3,CCGCCATC,-0.256
4,TATCTACA,0.17
5,ACAAGAAC,0.0614
6,ACATGAAG,0.0813
7,CGCCCCAG,-0.332
8,CCTTGATC,-0.174
9,GAGCATGC,-0.235
10,AGCGGCGG,-0.201
11,AGCATATA,0.383
12,CACAATGG,-0.181
13,CATCATTA,0.128
14,AGATACAA,0.144
15,GGGTCAGA,-0.206
16,CTCTACAA,0.0497
17,AACCGCAC,0.0379
18,CCAACTGC,-0.0852
19,ACAGCGGA,0.107
20,AAGCGGGA,-0.172
21,CACCGAGA,-0.183
22,GGTGCTAC,-0.243
23,CCGGATTA,0.132
24,AGCGGACC,-0.153
25,GATTAGAC,0.0487
26,GCACATGC,-0.0668

row,Sequence,PBM 8-mer E-score
1,GAGTAAGC,0.0293
2,ATACTCAC,0.0719
3,CGTACATC,-0.023
4,ATGAGGGG,-0.304
5,GGCGTCAA,-0.0984
6,ACCCGCAT,-0.0917
7,ATTTTGTG,0.153
8,CCACAGCG,-0.201
9,GCCCGCCA,-0.208
10,CAGCTTAG,-0.203
11,ATTTGCAC,0.144
12,CTGTCGCA,-0.0688
13,ATAACGGC,0.262
14,ATTGCTTA,0.224
15,ACCAGAAT,0.135
16,ACACATCG,-0.0363
17,CATAAACG,0.058
18,GATTGAAC,0.0162
19,ACGATATC,0.00546
20,CCCTTCCA,-0.295
21,AACCCCGC,-0.223
22,AATGCTCG,-0.0785
23,CAAAAACA,0.133
24,AATTGTTA,0.377
25,CAATAAAC,0.254
26,ACCCAACT,-0.0289

row,Sequence,PBM 8-mer E-score
1,ATTGGTAC,0.139
2,ACCGATCA,0.0257
3,ACTTTGCA,0.19
4,TACTCAAA,0.0505
5,CCGTGTTC,-0.159
6,CCAGCCTA,-0.217
7,AACGAATC,-0.111
8,TACATGCA,0.198
9,TGCGGAAA,0.107
10,CACTAGAG,-0.0838
11,AGTCGCGG,-0.0679
12,AACAGCGG,0.0925
13,TCTCGAAA,-0.106
14,CGGGCTAG,-0.148
15,GGTGGAAC,-0.14
16,ACGTTACA,0.136
17,AAGTTAAT,0.385
18,AAATTGTC,0.22
19,AAGTCCCG,-0.043
20,ACGAGAAA,0.0793
21,AGCTTTGC,-0.194
22,GAGCCTCC,-0.31
23,TAGATGCA,0.144
24,ACTGTTCC,0.0213
25,ACATATCC,0.16
26,CACTTGCG,-0.195

row,Sequence,PBM 8-mer E-score
1,ACAAGCAG,0.0229
2,CAGTGGAG,-0.211
3,CGGCTTCA,-0.245
4,AGGCGTAG,-0.28
5,CGCTCGGC,-0.275
6,CCCGACCA,-0.23
7,ATGTGCGC,0.00817
8,GTCCGCAC,-0.0655
9,AATAGAAA,0.29
10,CACAAAGC,-0.108
11,ACGGACGT,-0.231
12,CAATTGCA,0.112
13,GATGAGCA,-0.153
14,TCTGTCCA,-0.221
15,AGTCCCAT,-0.135
16,TCAGGGGA,-0.118
17,AAATCTCG,0.0799
18,AGAGTTTC,-0.0443
19,GAACCCTA,-0.122
20,CAGGAGTA,-0.0651
21,CGGATTTC,-0.0928
22,CCCCGCAA,-0.159
23,CCACCTTC,-0.11
24,CAGTGAGG,-0.304
25,GGTTCGAA,-0.0165
26,CCTCTCAA,-0.209

row,Sequence,PBM 8-mer E-score
1,AGATGATA,0.14
2,AACCTAAA,0.135
3,CATTGCCG,-0.0568
4,AGTAGACA,-0.00875
5,CCCGTCAA,-0.031
6,CACACTTC,0.227
7,AGGTACGA,-0.137
8,GAAGCCAC,-0.132
9,AAACAGCT,0.123
10,GAAGCAGA,-0.113
11,GATGAATA,0.248
12,AGTGGGTG,0.00832
13,AACCCTGG,-0.22
14,ACATATCT,0.311
15,ACTTAGCC,0.0311
16,CGCTGTTA,0.0457
17,AATGTGTG,0.0292
18,CCTTGACA,-0.0472
19,CTTTTTGA,0.11
20,AACAAAGG,0.136
21,CCGACTTA,0.0502
22,CCACCACA,0.0416
23,GTGTCGAA,-0.24
24,AGAGTCAG,-0.161
25,ATTGTGTA,0.188
26,AGCAGGAG,-0.358

row,Sequence,PBM 8-mer E-score
1,GGAAAACC,-0.176
2,GCCCGTCA,-0.25
3,CTACATTC,-0.000766
4,TGCTTTAA,0.094
5,GACGTTCA,-0.218
6,GCGGCCCA,-0.357
7,CTATTCCC,0.0347
8,ATTGGGAA,0.00113
9,ATTAGTAA,0.332
10,ATCGTTCG,-0.21
11,GAGCCCTA,-0.238
12,CACGAATC,0.0115
13,CGTATACA,0.17
14,CCCTTACA,-0.0977
15,CCGAGTGC,-0.154
16,AATCCTGA,0.0241
17,CATGTTCA,-0.0267
18,CATCCATC,-0.105
19,GCGTCGAC,-0.247
20,GTTCTTGA,-0.043
21,CATGAGTC,-0.0795
22,TAGAGCCA,-0.138
23,AATGAATC,0.211
24,CATTTTTA,0.242
25,AGCTGCTA,-0.226
26,CACTAATC,0.126

row,Sequence,PBM 8-mer E-score
1,GCTACGAC,-0.224
2,CACTTCTG,0.0733
3,ACCGGCAG,-0.195
4,AACGACTC,0.0548
5,CAGCGCGC,-0.206
6,GCTACACA,-0.0734
7,CTGGAAAC,-0.0862
8,CTCTTCAG,-0.143
9,AGGCGCTG,-0.199
10,ATGTTCAC,0.116
11,CCGACATC,-0.124
12,GCCGTTTA,0.0727
13,CCTACGGA,-0.265
14,CGTTTGTA,0.122
15,GAAGTGGC,-0.107
16,ATTCCAGA,-0.0246
17,CATGGGGA,-0.172
18,GATGTCAA,-0.0616
19,TATCCGCA,0.142
20,GAGAATCA,-0.0307
21,AGAACAGA,0.1
22,CTTTTGAC,-0.000252
23,TGGAAAAA,0.0629
24,CGACCAAG,-0.131
25,AGTACTAG,0.02
26,CATGCTCC,-0.179

row,Sequence,PBM 8-mer E-score
1,AGTGCGGG,-0.139
2,AGGGAATA,0.0758
3,ATGCATGG,-0.134
4,ACGTACGC,-0.105
5,CAAGCATC,-0.121
6,GTAAGTTA,0.396
7,ATCTGGTA,-0.114
8,AGACCTCC,-0.277
9,CTCGTCTC,-0.199
10,ACAAGGAC,-0.136
11,CGTTATTA,0.364
12,ACCCGTCA,-0.117
13,AGTGCAAA,0.135
14,CTTTGTTA,0.25
15,CACGCTCG,-0.168
16,AGCGCCCC,-0.195
17,CTTGAGGA,-0.0094
18,ATTATGAC,0.187
19,CGGGACCC,-0.259
20,AATGGGAC,-0.159
21,CACGATCG,-0.122
22,CAACATAA,0.271
23,CAAATCGG,-0.078
24,GTGAGCAC,-0.167
25,CAGGTGCA,-0.0913
26,AACCTTGC,-0.0834

row,Sequence,PBM 8-mer E-score
1,CTTTCAAC,0.0504
2,CCTCAGGC,-0.25
3,ACCCTTAC,-0.128
4,CGATAAAA,0.17
5,AAGACCGG,-0.0679
6,GTCGTCCA,-0.15
7,ACATATGA,0.179
8,CGGACTCC,-0.218
9,AGGGTTAG,-0.216
10,GGGCGACC,-0.294
11,GCGGAACA,0.0739
12,CAGCTAGG,-0.307
13,CACGTCTG,-0.164
14,ACGTCACA,-0.00152
15,CGATATAG,0.196
16,CGGTGAAC,-0.0689
17,CAACTGCA,-0.0768
18,AAATACAC,0.0784
